Results as given in the supplement of paper PMC4967469.
A lower IC50 marks a more sensitive line; a fit beyond the top or the lowest dose is shown as a bound at that dose. AUC sums up the same curve from the lowest dose to the 256-fold higher top dose; it is 1 without any effect and falls as sensitivity rises. For part of these data: A top dose marked as inferred was calculated from the reported fits.

Key:
Assay in all cases: Viability of human cancer cell lines after 72 h of drug (GDSC screen)
[1] = compound: C=CC(=O)Nc1ccc(C(=O)c2sc(Nc3ccc(N4CCN(C)CC4)cc3OC)nc2N)cc1 [XMD15-27]; conditions: top dose 10.24 µM; top dose inferred
Protocol: (§1)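 Human cancer cell lines in 384-well plates, medium with 10% serum, drug for 72 h over a 256-fold dose range (nine 2-fold or five 4-fold steps up to the top dose). Adherent lines were fixed and stained with the nucleic acid dye Syto60, suspension lines read with resazurin; signal relative to control wells, capped at 0 and 100%. One two-parameter sigmoid per drug and line, fitted in a mixed model over all curves with the slope shared within a line.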

[2] = compound: CO[C@H]1C[C@@H]2CC[C@@H](C)[C@@](O)(O2)C(=O)C(=O)N2CCCC[C@H]2C(=O)O[C@H]([C@H](C)C[C@@H]2CC[C@@H](OC(=O)C(C)(CO)CO)[C@H](OC)C2)CC(=O)[C@H](C)/C=C(\C)[C@@H](O)[C@@H](OC)C(=O)[C@H](C)C[C@H](C)/C=C/C=C/C=C/1C [Temsirolimus]; conditions: top dose 0.2 µM
Protocol: as §1

[3] = compound: CC(=O)O[C@@H]1[C@@H](OC(C)=O)[C@@H](O)[C@H](Oc2c(-c3ccc(O)cc3)oc3cc(O)cc(O)c3c2=O)O[C@H]1C [SL 0101-1]; conditions: top dose 10 µM; top dose inferred
Protocol: as §1

OCI-LY-19 (B-cell lymphoma, suspension)
AUC [1]: 0.944
IC50 [1]: > 10.2 µM
AUC [2]: 0.935
IC50 [2]: > 0.2 µM
AUC [3]: 0.988
IC50 [3]: > 10 µM

BT-483 (breast, adherent)
AUC [1]: 0.977
IC50 [1]: > 10.2 µM
AUC [2]: 0.753
IC50 [2]: 0.134 µM
AUC [3]: 0.929
IC50 [3]: > 10 µM

H4 (glioma, adherent)
AUC [1]: 0.968
IC50 [1]: > 10.2 µM
AUC [2]: 0.253
IC50 [2]: 0.00246 µM
AUC [3]: 0.982
IC50 [3]: > 10 µM

HCC-78 (lung adenocarcinoma, adherent)
AUC [1]: 0.983
IC50 [1]: > 10.2 µM
AUC [2]: 0.935
IC50 [2]: > 0.2 µM
AUC [3]: 0.969
IC50 [3]: > 10 µM

T47D (breast, adherent)
AUC [1]: 0.977
IC50 [1]: > 10.2 µM
AUC [2]: 0.706
IC50 [2]: 0.0661 µM
AUC [3]: 0.976
IC50 [3]: > 10 µM

ST486 (Burkitt lymphoma, suspension)
AUC [1]: 0.907
IC50 [1]: > 10.2 µM
AUC [2]: 0.921
IC50 [2]: > 0.2 µM
AUC [3]: 0.985
IC50 [3]: > 10 µM

RF-48 (stomach, adherent)
AUC [1]: 0.949
IC50 [1]: > 10.2 µM
AUC [2]: 0.79
IC50 [2]: 0.101 µM
AUC [3]: 0.985
IC50 [3]: > 10 µM

LU-135 (small cell lung carcinoma, suspension)
AUC [1]: 0.962
IC50 [1]: > 10.2 µM
AUC [2]: 0.968
IC50 [2]: > 0.2 µM
AUC [3]: 0.992
IC50 [3]: > 10 µM

ETK-1 (biliary tract, adherent)
AUC [1]: 0.973
IC50 [1]: > 10.2 µM
AUC [2]: 0.555
IC50 [2]: 0.0181 µM
AUC [3]: 0.983
IC50 [3]: > 10 µM

RPMI-8402 (T-cell lymphoblastic leukaemia, suspension)
AUC [1]: 0.918
IC50 [1]: > 10.2 µM
AUC [2]: 0.91
IC50 [2]: > 0.2 µM
AUC [3]: 0.99
IC50 [3]: > 10 µM

SUIT-2 (pancreas, adherent)
AUC [1]: 0.97
IC50 [1]: > 10.2 µM
AUC [2]: 0.911
IC50 [2]: > 0.2 µM
AUC [3]: 0.963
IC50 [3]: > 10 µM

CAL-29 (bladder, adherent)
AUC [1]: 0.985
IC50 [1]: > 10.2 µM
AUC [2]: 0.405
IC50 [2]: 0.00671 µM
AUC [3]: 0.97
IC50 [3]: > 10 µM

NMC-G1 (glioma, adherent)
AUC [1]: 0.957
IC50 [1]: > 10.2 µM
AUC [2]: 0.717
IC50 [2]: 0.0602 µM
AUC [3]: 0.958
IC50 [3]: > 10 µM

A431 (skin, adherent)
AUC [1]: 0.961
IC50 [1]: > 10.2 µM
AUC [2]: 0.904
IC50 [2]: > 0.2 µM
AUC [3]: 0.987
IC50 [3]: > 10 µM

CCK-81 (large intestine, adherent)
AUC [1]: 0.99
IC50 [1]: > 10.2 µM
AUC [2]: 0.99
IC50 [2]: > 0.2 µM
AUC [3]: 0.99
IC50 [3]: > 10 µM

NCI-H1623 (lung adenocarcinoma, adherent)
AUC [1]: 0.985
IC50 [1]: > 10.2 µM
AUC [2]: 0.872
IC50 [2]: > 0.2 µM
AUC [3]: 0.985
IC50 [3]: > 10 µM

CHP-126 (neuroblastoma, suspension)
AUC [1]: 0.971
IC50 [1]: > 10.2 µM
AUC [2]: 0.908
IC50 [2]: > 0.2 µM
AUC [3]: 0.987
IC50 [3]: > 10 µM

MHH-ES-1 (Ewing sarcoma, adherent)
AUC [1]: 0.952
IC50 [1]: > 10.2 µM
AUC [2]: 0.452
IC50 [2]: 0.00925 µM
AUC [3]: 0.986
IC50 [3]: > 10 µM

EC-GI-10 (oesophagus, adherent)
AUC [1]: 0.989
IC50 [1]: > 10.2 µM
AUC [2]: 0.861
IC50 [2]: 0.166 µM
AUC [3]: 0.975
IC50 [3]: > 10 µM

HCC1500 (breast, adherent)
AUC [1]: 0.98
IC50 [1]: > 10.2 µM
AUC [2]: 0.635
IC50 [2]: 0.03 µM
AUC [3]: 0.982
IC50 [3]: > 10 µM

NCI-H2347 (lung adenocarcinoma, adherent)
AUC [1]: 0.983
IC50 [1]: > 10.2 µM
AUC [2]: 0.946
IC50 [2]: > 0.2 µM
AUC [3]: 0.98
IC50 [3]: > 10 µM

EN (endometrium, adherent)
AUC [1]: 0.984
IC50 [1]: > 10.2 µM
AUC [2]: 0.861
IC50 [2]: > 0.2 µM
AUC [3]: 0.984
IC50 [3]: > 10 µM

TK10 (kidney, adherent)
AUC [1]: 0.981
IC50 [1]: > 10.2 µM
AUC [2]: 0.859
IC50 [2]: > 0.2 µM
AUC [3]: 0.951
IC50 [3]: > 10 µM

SCC-9 (head and neck, adherent)
AUC [1]: 0.967
IC50 [1]: > 10.2 µM
AUC [2]: 0.965
IC50 [2]: > 0.2 µM
AUC [3]: 0.962
IC50 [3]: > 10 µM

KM12 (large intestine, adherent)
AUC [1]: 0.976
IC50 [1]: > 10.2 µM
AUC [2]: 0.894
IC50 [2]: > 0.2 µM
AUC [3]: 0.974
IC50 [3]: > 10 µM

CCRF-CEM (lymphoblastic leukaemia, suspension)
AUC [1]: 0.976
IC50 [1]: > 10.2 µM
AUC [2]: 0.156
IC50 [2]: 0.00142 µM
AUC [3]: 0.954
IC50 [3]: > 10 µM

SNG-M (endometrium, adherent)
AUC [1]: 0.974
IC50 [1]: > 10.2 µM
AUC [2]: 0.888
IC50 [2]: > 0.2 µM
AUC [3]: 0.968
IC50 [3]: > 10 µM

RCC-JW (kidney, adherent)
AUC [1]: 0.91
IC50 [1]: > 10.2 µM
AUC [2]: 0.249
IC50 [2]: 0.00232 µM
AUC [3]: 0.986
IC50 [3]: > 10 µM

CAL-33 (head and neck, adherent)
AUC [1]: 0.982
IC50 [1]: > 10.2 µM
AUC [2]: 0.402
IC50 [2]: 0.00674 µM
AUC [3]: 0.974
IC50 [3]: > 10 µM

NCI-SNU-16 (stomach, suspension)
AUC [1]: 0.991
IC50 [1]: > 10.2 µM
AUC [2]: 0.985
IC50 [2]: > 0.2 µM
AUC [3]: 0.968
IC50 [3]: > 10 µM

Becker (glioma, adherent)
AUC [1]: 0.984
IC50 [1]: > 10.2 µM
AUC [2]: 0.695
IC50 [2]: 0.0475 µM
AUC [3]: 0.931
IC50 [3]: > 10 µM

NCI-H345 (small cell lung carcinoma, suspension)
AUC [1]: 0.987
IC50 [1]: > 10.2 µM
AUC [2]: 0.968
IC50 [2]: > 0.2 µM
AUC [3]: 0.99
IC50 [3]: > 10 µM
